The text below walks through data of article PMC9911399, “Two distinct binding modes provide the RNA-binding protein RbFox with extraordinary sequence specificity”.

B1: UAACCUA (DNA:RNA)
RNA: GGGAGACCGGAAUUCAGAUUGUCCUAACCUAUUAAAUCCCGUCGUAGCCACCA
DNA 1: CAATCTGAATTCCGGTCTCCC
DNA 2: TGGTGGCTACGACGGGATT
B2: GCGAAAC (DNA:RNA)
RNA: GGGAGACCGGAAUUCAGAUUGUCCGCGAAACUUAAAUCCCGUCGUAGCCACCA
DNA 1: CAATCTGAATTCCGGTCTCCC
DNA 2: TGGTGGCTACGACGGGATT
B3: UUUCACA (DNA:RNA)
RNA: B1 RNA with A26U, A27U, C29A, U30C
DNA 1: CAATCTGAATTCCGGTCTCCC
DNA 2: TGGTGGCTACGACGGGATT
B4: AGCGAGU (DNA:RNA)
RNA: B2 RNA with G25A, C26G, G27C, A28G, A30G, C31U
DNA 1: CAATCTGAATTCCGGTCTCCC
DNA 2: TGGTGGCTACGACGGGATT
B5: UAUGGUA (DNA:RNA)
RNA: B1 RNA with A27U, C28G, C29G
DNA 1: CAATCTGAATTCCGGTCTCCC
DNA 2: TGGTGGCTACGACGGGATT
B6: UUUGGAG (DNA:RNA)
RNA: B2 RNA with G25U, C26U, G27U, A28G, A29G, C31G
DNA 1: CAATCTGAATTCCGGTCTCCC
DNA 2: TGGTGGCTACGACGGGATT
B7: UCGGAGA (DNA:RNA)
RNA: B2 RNA with G25U, A28G, A30G, C31A
DNA 1: CAATCTGAATTCCGGTCTCCC
DNA 2: TGGTGGCTACGACGGGATT
B8: UUUUGCG (DNA:RNA)
RNA: B1 RNA with A26U, A27U, C28U, C29G, U30C, A31G
DNA 1: CAATCTGAATTCCGGTCTCCC
DNA 2: TGGTGGCTACGACGGGATT
B9: CCUGUGG (DNA:RNA)
RNA: B2 RNA with G25C, G27U, A28G, A29U, A30G, C31G
DNA 1: CAATCTGAATTCCGGTCTCCC
DNA 2: TGGTGGCTACGACGGGATT
B10: CACCGAG (DNA:RNA)
RNA: B1 RNA with U25C, A27C, C29G, U30A, A31G
DNA 1: CAATCTGAATTCCGGTCTCCC
DNA 2: TGGTGGCTACGACGGGATT
B11: AAUGACA (DNA:RNA)
RNA: B1 RNA with U25A, A27U, C28G, C29A, U30C
DNA 1: CAATCTGAATTCCGGTCTCCC
DNA 2: TGGTGGCTACGACGGGATT
B12: CGCUUGU (DNA:RNA)
RNA: GGGAGACCGGAAUUCAGAUUGUCCCGCUUGUUUAAAUCCCGUCGUAGCCACCA
DNA 1: CAATCTGAATTCCGGTCTCCC
DNA 2: TGGTGGCTACGACGGGATT
B13: GGUGAGC (DNA:RNA)
RNA: B2 RNA with C26G, G27U, A28G, A30G
DNA 1: CAATCTGAATTCCGGTCTCCC
DNA 2: TGGTGGCTACGACGGGATT
B14: CGUGCAA (DNA:RNA)
RNA: B12 RNA with C27U, U28G, U29C, G30A, U31A
DNA 1: CAATCTGAATTCCGGTCTCCC
DNA 2: TGGTGGCTACGACGGGATT
B15: CUAUUUC (DNA:RNA)
RNA: B12 RNA with G26U, C27A, G30U, U31C
DNA 1: CAATCTGAATTCCGGTCTCCC
DNA 2: TGGTGGCTACGACGGGATT
B16: CUUCCGG (DNA:RNA)
RNA: B12 RNA with G26U, C27U, U28C, U29C, U31G
DNA 1: CAATCTGAATTCCGGTCTCCC
DNA 2: TGGTGGCTACGACGGGATT
B17: GAUGCGA (DNA:RNA)
RNA: B1 RNA with U25G, A27U, C28G, U30G
DNA 1: CAATCTGAATTCCGGTCTCCC
DNA 2: TGGTGGCTACGACGGGATT
B18: AGUAACU (DNA:RNA)
RNA: B12 RNA with C25A, C27U, U28A, U29A, G30C
DNA 1: CAATCTGAATTCCGGTCTCCC
DNA 2: TGGTGGCTACGACGGGATT
B19: UGAAAGG (DNA:RNA)
RNA: B12 RNA with C25U, C27A, U28A, U29A, U31G
DNA 1: CAATCTGAATTCCGGTCTCCC
DNA 2: TGGTGGCTACGACGGGATT
B20: CUGAGGA (DNA:RNA)
RNA: B12 RNA with G26U, C27G, U28A, U29G, U31A
DNA 1: CAATCTGAATTCCGGTCTCCC
DNA 2: TGGTGGCTACGACGGGATT

Residue numbers refer to the chain shown, from its start. Some of the results follow.

The target in the test is T1, RBFOX1 RRM RbFoxmut (Fox-RRM*) (Homo sapiens, UniProt Q9NWB1 109-208, R118D;E147R;N151S;E152T).
T1 sequence: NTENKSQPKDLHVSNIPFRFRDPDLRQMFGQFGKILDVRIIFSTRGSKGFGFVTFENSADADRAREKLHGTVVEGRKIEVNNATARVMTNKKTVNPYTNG
Briefly: EMSA; HiTS-Eq, 1 nM pool, 10 min; buffer printed only for the single-RNA assays: 10 mM Tris pH 7.5, 150 mM NaCl, 3.4 mM EDTA, 0.001% NP-40, 30 C. Particulars: tags: His6 N-terminal (pET28a); label: 5' 32P. Put shortly:
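These values rest on relative association constants, computed from read-count changes of each RNA species versus the control reaction and normalised to the cognate motif. Reads came from free RNA recovered by 8% native PAGE after purified RbFox RRM (wild type or mutant) at increasing concentrations was equilibrated for 10 min in 50 µL with 1 nM of a 5′-radiolabelled pool with 7 randomized nucleotides and DNA-annealed flanks.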
For orientation: In EMSA bound probe runs differently from free probe, usually more slowly.
For B1, the binding signal is 0.0804 KA relative to UGCAUGU.

In the case of B2, the binding signal is 0.0542 KA relative to UGCAUGU.

On to B3, for which the binding signal was 0.0896 KA relative to UGCAUGU.

Consider B4, for which the binding signal is 0.139 KA relative to UGCAUGU.

As to B5, the binding signal was 0.152 KA relative to UGCAUGU.

On to B6, for which the binding signal is 0.139 KA relative to UGCAUGU.

B7: the binding signal was 0.0882 KA relative to UGCAUGU.

Consider B8, for which the binding signal is 0.146 KA relative to UGCAUGU.

On to B9, for which the binding signal is 0.0709 KA relative to UGCAUGU.

In the case of B10, the binding signal was 0.104 KA relative to UGCAUGU.

For the molecule B11, the binding signal was 0.0636 KA relative to UGCAUGU.

On to B12, for which the binding signal was 0.256 KA relative to UGCAUGU.

For the molecule B13, the binding signal was 0.0842 KA relative to UGCAUGU.

Take B14: the binding signal is 0.0738 KA relative to UGCAUGU.

As to B15, the binding signal is 0.0582 KA relative to UGCAUGU.

Turning to B16, the binding signal is 0.0369 KA relative to UGCAUGU.

For B17, the binding signal was 0.0634 KA relative to UGCAUGU.

Regarding B18, the binding signal was 0.0997 KA relative to UGCAUGU.

For the molecule B19, the binding signal was 0.032 KA relative to UGCAUGU.

On to B20, for which the binding signal was 0.0696 KA relative to UGCAUGU.
